Data as given in the supplement of paper PMC3334620.
The full ranking holds about 33,000 sequences; the median of “E-score (-0.5 to 0.5)” is about -0.012, and the highest 2% start at about 0.27. Some of the results follow.

Target: T1, Vhr1 (UniProt P40522)
T1 sequence: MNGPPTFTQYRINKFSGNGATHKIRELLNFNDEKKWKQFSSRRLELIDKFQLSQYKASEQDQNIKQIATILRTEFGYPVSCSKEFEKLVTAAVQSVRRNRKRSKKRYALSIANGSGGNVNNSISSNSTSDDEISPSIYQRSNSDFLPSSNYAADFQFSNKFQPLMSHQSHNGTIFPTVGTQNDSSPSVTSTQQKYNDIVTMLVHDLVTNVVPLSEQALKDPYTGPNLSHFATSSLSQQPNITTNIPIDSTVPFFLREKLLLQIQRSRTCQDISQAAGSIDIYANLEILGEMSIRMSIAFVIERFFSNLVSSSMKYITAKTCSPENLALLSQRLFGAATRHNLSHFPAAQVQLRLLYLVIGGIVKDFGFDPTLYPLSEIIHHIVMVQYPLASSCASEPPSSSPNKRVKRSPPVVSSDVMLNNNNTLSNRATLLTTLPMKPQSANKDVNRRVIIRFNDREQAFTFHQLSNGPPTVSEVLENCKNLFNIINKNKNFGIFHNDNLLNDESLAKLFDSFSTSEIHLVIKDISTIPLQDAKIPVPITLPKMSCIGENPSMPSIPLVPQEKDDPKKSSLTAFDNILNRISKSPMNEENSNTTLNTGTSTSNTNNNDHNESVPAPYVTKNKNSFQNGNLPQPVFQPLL
Assay: PBM E-score (8-mer binding enrichment) (E-score (-0.5 to 0.5)); higher = stronger / more preferred TF binding; most listed sequences are background and not binding sites
Conditions: protein concentration: 200 nM; construct: GST-full length
Summary of the method: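 E-scores (a modified Wilcoxon-Mann-Whitney statistic) were assigned by the Universal PBM Analysis Suite to every ungapped eight-base word pooled with its reverse complement. The input came from universal all-10-mer Agilent arrays made double-stranded by primer extension and probed with GST-tagged yeast transcription factors at about 100-200 nM. Fluorescent anti-GST detected bound protein, and masliner normalised the scans.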

Sequence	PBM E-score
CCATCTAG	-0.0856
GCTGCTAC	-0.0326
GATACTGA	0.159
CCCATTAC	0.141
GGGCCGAC	0.0635
ACTCGGCG	0.115
CTTGCTAA	-0.211
CACACCGA	0.246
GGTTGACA	-0.102
ACATAACT	0.25
CAGGTAAA	-0.0451
ACCAACCA	0.163
CAGGGACC	-0.284
CGTCGTTC	0.0639
CATGCGAG	0.0796
GCTGAGCC	0.28
AGCTTCAG	-0.179
AAGAAAGG	-0.134
AGAAAATG	-0.163
ACAGGGAT	0.188
ATCGAAGC	-0.0583
ATGACTAA	0.42
CCTGGGGA	-0.164
CGGTGTGA	0.265
GAATGCGC	0.00347

Sequence	PBM E-score
GTAGACAC	0.112
ACCGATGC	-0.0206
CAAGAGCG	0.0553
CATTCAGG	-0.044
AATGTGGA	0.0331
AGAGCGGC	-0.0566
ATATGATC	0.208
ATTGCCAA	-0.0455
GTGAAGCA	-0.137
GCCAAAGA	-0.305
ACAGGCAA	-0.0839
CATAGGGC	-0.162
GACGGGTA	-0.133
CTTTTGGC	-0.283
AATGCAAC	-0.0181
TAATTCGA	-0.0539
ATACTTAA	-0.225
CTGACATC	0.0361
ATTTCAGC	-0.107
CCGCAGTA	0.0424
ACATTAGT	0.116
GTAAGCAA	-0.0299
TACGAGGA	0.0624
AATACTTA	-0.125
ACCTGGGA	0.137

Sequence	PBM E-score
CAGTTTAA	-0.224
CTCCTCAG	-0.08
TCCGTCGA	0.0957
GTCATCGA	0.205
TCGAAACA	0.116
CTTCCAGC	-0.279
CTATAAGA	-0.0546
GCCCTTAC	-0.259
ACCACCAG	0.215
CAGGGGCC	-0.184
ACTCGAGA	0.256
GCGGGCAC	0.154
AGAGGTCG	-0.0286
AGCTTTTC	-0.246
CTTGTAAC	0.145
AGGTTACG	-0.215
CTCGAGTA	0.2
ATGCTTTA	-0.0608
TCCTGCGA	0.111
GGCGCGCA	0.121
CGGAGGTA	0.0787
CGGATTGA	0.132
AACGTGAC	0.00812
CGGTAGAA	-0.313
ATTGACGG	-0.0802

Sequence	PBM E-score
CCGTTAAG	-0.102
GATCAGCC	0.0261
TGCAATAA	-0.0029
AATCAGTG	0.0903
AATGATGC	0.0924
AGCAAAAC	-0.0538
AGTTTGGG	0.181
AGCGGATC	0.134
AAGTGGTC	-0.0588
CTGCCATC	0.0703
GAGGTACC	-0.0338
CGCATCTA	0.106
CATGTCCC	-0.0442
AAATTATG	-0.143
ACCCGCTA	-0.0506
AGAAGTAA	-0.194
ATTCTGTA	-0.046
CGACACCC	0.147
AAGGTAGA	-0.274
AGATTTAA	-0.133
CACAGGTG	0.123
CTGCCCAA	-0.0128
GTTGACAA	0.0308
ATACGTGC	0.145
AACTACCC	0.0648

Sequence	PBM E-score
CTCGAATA	-0.247
GAGTTGCA	-0.0728
CCGCACAA	-0.0159
ATGCACCG	-0.0282
AAAGAATT	-0.206
CTAAGGCA	-0.113
ACACGCGC	0.112
AATCGTAG	-0.0117
CGTCCCAC	0.0371
AGCTATCA	0.0299
GTCCAGAC	-0.0483
CAGGGTAG	-0.018
AGTCTACG	-0.0825
AGCAACAC	0.0703
GGTCCACC	-0.123
GTAAGCAC	-0.114
TACAAGAA	0.0257
CTAGTCAC	0.34
CCGGGCTA	-0.0844
GAAAGAAA	-0.0351
GCTACTGA	0.134
CAGTGACC	0.0882
CCTGCAAA	-0.293
AACGGTAA	-0.0577
ACTCCCGA	0.0297

Sequence	PBM E-score
GTAGGGTA	0.0298
CTCCCGTA	-0.122
AGCCGAAA	-0.108
CGCTGACA	0.0209
GGCTTGCA	0.0962
GTGCTAAC	-0.104
AATTTACC	-0.103
TGGATTAA	0.0399
ACATAGAG	0.0621
CAGGAAGA	-0.116
ACGTCTGA	0.0117
ACAATGCT	-0.0282
CTGACACC	0.0756
ACGGACCA	-0.0546
ATCATATA	0.221
CCACAATC	0.149
CTCCTATA	-0.0775
CGTGCCTC	0.0795
GAACTGAA	-0.0783
TAAGGACA	-0.0737
GCACTTAC	-0.0973
AGTCCGGC	0.0728
CCTCGCTC	0.0996
TGGTTCAA	0.289
ACGTGACT	0.41

Sequence	PBM E-score
CCTAGCAA	-0.0178
GACACGAC	0.216
CAAAGAGG	-0.0673
GATTCATA	0.154
AATCGACT	0.014
CAATAGCC	-0.0353
CTAGGAGC	-0.12
GCCCCCAA	-0.239
ACATTGGT	-0.125
GGTAGAAC	-0.197
ACTATAAG	0.0069
GAGGTGGC	-0.141
CGACCGCA	-0.00903
AATGACTA	0.353
AAGATGAT	-0.0576
ATGTGGGG	-0.0749
AGCTGTAG	0.132
CCCGTCGA	0.0174
GATAAAAA	-0.032
AAAGTGTC	-0.136
ACTATGGA	0.0575
AGACTTTG	-0.271
AGGGGGGG	-0.261
ACTGCTAG	-0.0984
AATTTTGA	0.00148

Sequence	PBM E-score
GATCAGTA	0.121
CCAAGGAA	-0.156
CGAATGAA	0.0313
CTTTTGCC	0.0594
GGACAGCA	-0.0306
ATTTCCTG	-0.032
GAGACCCC	0.0929
ATTTTTTC	-0.263
ATATACTG	0.176
AGGCAAGC	-0.288
CCAAGTAG	-0.0526
CCTGGTCG	-0.0864
CGAGATTC	0.144
CTGGCTGC	-0.021
CGTCCCTA	-0.129
CATGATAC	0.228
CCAACTGA	0.0392
CGTCATAA	0.016
AAACATGT	0.103
AAATCCAC	-0.155
GTTGCACA	0.0803
CAAAATTA	-0.101
CCCCAAGG	-0.104
CTGCTTCA	-0.21
ACGGAATA	0.109

Sequence	PBM E-score
ACGCCGGA	-0.00963
CCCGTCGC	0.136
AAACACCC	-0.0796
ATTCACAG	-0.0154
ATGAGAGG	-0.0809
AGCCCGTA	-0.132
ACGAAGAA	0.126
AGAGCTTG	-0.146
GTACGATA	-0.0257
AACGTTTA	-0.151
GCCACTCC	0.205
TCAAAGGA	-0.146
CGCAATGC	0.0459
ACCACAGT	0.234
ATGTTATG	0.144
GAATCTAC	0.0109
CTTAGTTC	-0.132
ACCGTTCT	-0.161
AAGACGGC	-0.0605
